From PubChem BioAssay AID624417 (National Center for Advancing Translational Sciences (NCATS), 2012)
Among all 410,000 compounds or so, about 6,400 (1.6%) were called active. Inconclusive means that the source gave no clear call. Such entries were picked first, then a sample of the others. Calls follow the shape of the dose curve; as a rule, active = well fitted inhibition curve with a large enough effect; inconclusive = small, poorly fitted or top-dose-only effect; inactive = no such curve, though single readings can be large or run the other way. Potencies of inconclusive entries are left out as doubtful fits.

Molecular target: Glucagon-like peptide 1 receptor (Homo sapiens) (UniProt P43220)
Experiment: qHTS of GLP-1 Receptor Inverse Agonists (Inhibition Mode); also: nearly all actives have a fitted effect of over 55% in size
Conditions: HEK293 GLP-1R CRE-luciferase, luminescence, 24 h, GLP-1R form is constitutively active; activity change, negative = inhibition: at 38.3 µM (top of the series) unless noted
Method in brief: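 GLP-1R inverse agonism mode: basal reporter luminescence in engineered HEK293 cells measured after one day of compound exposure at 37 deg C, with a 12 min room-temperature detection step.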
% is scaled to controls: 0 for no effect and ±100 for the full control effect; potency is read from the fitted curve at half-maximal effect; tags tell the direction and shape of the fitted curve.

UniProt P43220, sequence (P43220 whole entry, looked up): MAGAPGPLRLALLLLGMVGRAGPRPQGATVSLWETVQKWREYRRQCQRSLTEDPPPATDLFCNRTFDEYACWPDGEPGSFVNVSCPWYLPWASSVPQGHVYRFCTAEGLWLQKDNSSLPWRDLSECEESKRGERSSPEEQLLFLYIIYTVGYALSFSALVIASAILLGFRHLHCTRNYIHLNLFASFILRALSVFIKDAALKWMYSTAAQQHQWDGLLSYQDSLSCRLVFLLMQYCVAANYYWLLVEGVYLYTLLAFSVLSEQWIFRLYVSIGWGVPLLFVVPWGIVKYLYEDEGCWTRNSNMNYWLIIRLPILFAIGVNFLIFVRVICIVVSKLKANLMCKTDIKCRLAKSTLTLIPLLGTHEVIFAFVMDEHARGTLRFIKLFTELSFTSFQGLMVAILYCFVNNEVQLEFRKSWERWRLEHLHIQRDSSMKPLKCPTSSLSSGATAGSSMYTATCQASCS

Row | SMILES | Potency | activity change, negative = inhibition
1 | Cc1ccc(C)c(-n2nnnc2SCC(=O)NCCC2=CCCCC2)c1 | inconclusive [inhibitor, single point] | –
2 | COc1ccc(CN2C(=O)CN=C2Nc2cc(C)ccc2C)cc1 | inconclusive [inhibitor, partial curve, poor fit] | –
3 | CN(c1ccccc1)S(=O)(=O)c1cccc(NC(=O)C2=NN(c3ccccc3)C(=O)CC2)c1 | inconclusive [inhibitor, single point] | –
4 | Cc1c(C)n(Cc2ccccc2)c2ccc(C(=O)N3CCN(c4ccccc4F)CC3)cc12 | inconclusive [inhibitor, single point] | –
5 | Cc1ccc(C(=O)CN2C(=O)NC3(CCc4ccccc43)C2=O)c(C)c1 (stereo not given) | inconclusive [inhibitor, partial curve] | –
6 | O=C(NCCc1ccc(Cl)cc1)c1cc(-c2ccccc2)n[nH]1 | inconclusive [inhibitor, single point] | –
7 | COc1cccc(C(=O)Nc2ccc(Oc3cccc(C(F)(F)F)c3)nc2)c1 | inconclusive [inhibitor, partial curve, poor fit] | –
8 | CCc1ccc(OCC(=O)Nc2cccc3c2CCCC3)cc1 | inconclusive [inhibitor, single point] | –
9 | COc1cccc(OC)c1C(=O)N1CCN(Cc2ccccc2C(F)(F)F)CC1 | inconclusive [inhibitor, full curve] | –
10 | CCC(=O)c1ccc(OCc2ccc(C(=O)OC)cc2)c(OC)c1 | inactive | –
11 | CCN(CC)S(=O)(=O)c1ccc(/C=C/C(=O)Nc2ccc(Br)cc2F)cc1 | inconclusive [inhibitor, single point] | –
12 | CSc1cccc(NC(=S)N(CCCN2CCCC2)Cc2cccn2Cc2ccc(Cl)cc2)c1 | active: 3.55 µM | –
13 | O=C(COc1cccc(Br)c1)Nc1ccc(Cl)c(S(=O)(=O)N2CCOCC2)c1 | inconclusive [inhibitor, partial curve, poor fit] | –
14 | CC(C(=O)NC(C)(C)C)N(Cc1cccs1)C(=O)CCN1CCc2ccccc21 (stereo not given) | active: 10 µM | –
15 | CCN(CC)C(=O)[C@H]1C[C@H](CC(=O)NC(C)(C)C)C(=O)N2CCc3c([nH]c4cc(CCC(=O)N(C)C)ccc34)[C@]12C | inactive | –
16 | O=C1OCCN1C(=O)[C@H]1[C@H](c2ccc(Cl)cc2)C(c2ccccc2)=NN1c1ccccc1 | inconclusive [inhibitor, partial curve, poor fit] | –
17 | CCN(CC)c1ccc(C(=C2C=CC(=[N+](CC)CC)C=C2)c2ccccc2)cc1 | inconclusive [inhibitor, full curve, poor fit] | –
18 | Cc1ccc(C)c(OCc2cc(C(=O)N3CC[C@@H]4CCCC[C@H]4C3)no2)c1 | active: 11.2 µM | –
19 | CCCn1c(=N)n(CC(=O)OCC)c2ccccc21 | inactive | –
20 | CC(C)c1ccccc1NC(=S)NC1CCN(Cc2ccccc2)CC1 | inconclusive [inhibitor, partial curve, poor fit] | –
21 | Cc1ccc(N(CC(=O)NC(C)c2ccccc2)S(=O)(=O)c2c(C)n[nH]c2C)cc1 (stereo not given) | inconclusive [inhibitor, single point] | –
22 | CCOC(=O)c1c(N)nn(C(=O)c2ccccc2)c1-c1ccccc1 | inconclusive [inhibitor, single point] | –

Row | SMILES | Potency | activity change, negative = inhibition
23 | COc1ccccc1Cn1c(C)c(C(=O)NCc2cccc(C)c2)sc1=O | inconclusive [inhibitor, partial curve] | –
24 | COc1ccc2cc(C3=CC(=O)CC(C)(C)C3=O)ccc2c1 | inactive | –
25 | O=C(Nc1ccc(C(=O)NCCCN2CCN(c3ccccc3)CC2)cc1)C1=CSCCO1 | inconclusive [inhibitor, partial curve, poor fit] | –
26 | O=C(Nc1ccc2c(c1)OCCO2)C1c2ccccc2OCC(=O)N1Cc1ccccn1 (stereo not given) | inactive | –
27 | CCOC(=O)N1CCN(Cc2nc3cc(NC(=O)CC)ccc3n2C(C)C)CC1 | inconclusive [inhibitor, full curve, poor fit] | –
28 | CCc1ccc([C@@H]2CC=C(C(=O)O)[C@H](c3ccc(Cl)cc3)N2S(=O)(=O)c2ccc(C)cc2)cc1 | inconclusive [inhibitor, partial curve, poor fit] | –
29 | CCN(CC(=O)NCc1ccc(F)cc1)CC(O)COCc1cccc(OC)c1 (stereo not given) | inactive | –
30 | CCN(CC)CCNC(=S)Nc1ccc2nc(N3CCN(C)CC3)cc(C)c2c1 | inconclusive [inhibitor, partial curve] | –
31 | CC(Oc1ccccc1Cl)C(=O)/C=C/N(C)C (stereo not given) | inconclusive [inhibitor, single point] | –
32 | CCOC(=O)c1c(NC(=O)CCN2CCOCC2)sc(C)c1-c1ccccc1 | inconclusive [inhibitor, single point] | –
33 | CCc1ccc(CNC(=O)Cn2ccc3cc(S(=O)(=O)N4CCCCCC4)ccc32)cc1 | inconclusive [inhibitor, partial curve, poor fit] | –
34 | CCN(CCCNC(=O)CSc1cc(=O)n(CC)c2ccccc12)c1ccccc1 | inconclusive [inhibitor, single point] | –
35 | COc1ccc2cc(Br)ccc2c1CC(=O)NC(C)C | inconclusive [inhibitor, partial curve, poor fit] | –
36 | COC(=O)C1=C(C(=O)OC)[C@]2([C@@H]3CC=CCN[C@@H](Cc4ccccc4)C(=O)N3Cc3ccccc3)C=C[C@H]1O2 | inconclusive [inhibitor, single point] | –
37 | CCOC(=O)N1CCC(N2CCCC(CO)(Cc3cccc(Cl)c3)C2)CC1 (stereo not given) | – | inconclusive: -33.6% [inhibitor]
38 | Cc1ccccc1NC(=O)CSC1=C(C#N)C(c2ccsc2)CC(=O)N1 (stereo not given) | inconclusive [inhibitor, partial curve, poor fit] | –
39 | O=C(Nc1ccccc1)c1ccc(=O)n(Cc2cccc(Cl)c2)c1 | inconclusive [inhibitor, partial curve, poor fit] | –
40 | Fc1ccc2[nH]c3c(NCc4ccccc4)ncnc3c2c1 | – | inconclusive: -68.9% [inhibitor]
41 | CCCCCNCC(=O)Nc1cc(C(F)(F)F)ccc1OCCOC | inconclusive [inhibitor, single point] | –
42 | O=C(NCC(=O)N(c1cccnc1)C(C(=O)NC1CCCC1)c1ccccc1)c1ccco1 (stereo not given) | inactive | –
43 | Fc1ccc(CN2CCCCCCC2)cc1 | inactive | –
44 | O=C(NC1=NCCS1)c1sc2ccccc2c1Cl | inactive | –

Row | SMILES | Potency | activity change, negative = inhibition
45 | Cc1nn(-c2ccccc2)c2nc(C3CC3)cc(C(=O)Nc3ccc(F)cc3)c12 | inactive | –
46 | CCc1nc2c(OCCC3CCCCC3)cccn2c1N(C)C(=O)c1cccs1 | inconclusive [inhibitor, partial curve, poor fit] | –
47 | Cc1noc(C)c1NC(=O)Nc1ccc2c(c1)C(=O)N([C@@H](C)CO)C[C@@H](C)[C@H](CN(C)C(=O)Nc1cccc3ccccc13)OCCCC[C@H](C)O2 | inconclusive [inhibitor, single point] | –
48 | O=C(Nc1ccc2c(c1)CCC2)c1ccc(F)cc1 | inconclusive [inhibitor, single point] | –
49 | CCc1c(C)sc2c1CCN(Cc1ccccc1)C2c1ccccc1 (stereo not given) | inconclusive [inhibitor, partial curve, poor fit] | –
50 | O=C(CCn1cnc2onc(-c3ccc(F)cc3)c2c1=O)Nc1ccc(F)c(Cl)c1 | active: 12.6 µM | –
51 | CCOC(=O)c1sc2nc3c(SCCC#N)cc(C(=O)c4cc(F)ccc4O)cn3c(=O)c2c1C | inconclusive [inhibitor, full curve, poor fit] | –
52 | C=CCc1ccccc1OCCSc1nc(-c2cccs2)nc2cc(=O)[nH]n12 | inactive | –
53 | C=CCNC(=O)c1onc(CSc2cccc(C)c2)c1C(=O)O | inconclusive [inhibitor, single point] | –
54 | O=C1CC(c2cccc(Cl)c2)Cc2nc(N3CCOCC3)ncc21 (stereo not given) | inconclusive [inhibitor, partial curve] | –
55 | CCn1c(C(C)NS(=O)(=O)c2ccc(Cl)cc2)n[nH]c1=S (stereo not given) | inconclusive [inhibitor, partial curve, poor fit] | –
56 | C/C(=N\OCc1ccc(C#N)cc1)c1ccccc1 | inactive | –
57 | O=C(Nc1cccc(S(=O)(=O)NC2=NCCC2)c1)c1ccccc1 | inactive | –
58 | O=C(Cn1nnc(-c2ccccc2)n1)N1CCCCC1 | inactive | –
59 | CC1(C)Cc2c(cnn2-c2ccc(F)cc2)C(NC(=O)CN2CCCCC2=O)C1 (stereo not given) | inconclusive [inhibitor, single point] | –
60 | Cc1ccccc1S(=O)Cc1ccc(C(=O)NC2CCN(Cc3ccccc3)CC2)o1 (stereo not given) | inconclusive [inhibitor, full curve, poor fit] | –
61 | Cc1cn2c(=O)cc(COc3cccc(NC(=O)c4ccc(C(C)(C)C)cc4)c3)nc2s1 | inactive | –
62 | O=C(NCc1ccccc1)C1CCN(c2nc(-c3ccccc3)nc3c2CCC3)CC1 | inconclusive [inhibitor, single point] | –
63 | O=C(CCCN1C(=O)/C(=C/c2cccc(Br)c2)SC1=S)Nc1cccnc1 | inconclusive [inhibitor, partial curve, poor fit] | –
64 | CC(=O)N1CCCc2cc(S(=O)(=O)CCC(=O)N3CCN(c4cccc(C)c4)C(C)C3)ccc21 (stereo not given) | inactive | –
65 | Cc1ccc(/C=N/N2C(=S)SC(C)(C)C2N(O)C(=O)Nc2ccc([N+](=O)[O-])cc2)cc1 (stereo not given) | inconclusive [inhibitor, partial curve, poor fit] | –
